# Data: PubChem BioAssay AID588453 (National Center for Advancing Translational Sciences (NCATS), 2011)
# “And” between values parts separate entries of the source, which are not always exact repeats. Identical values can stand only once. Among all 390,000 compounds or so, about 4,000 (1%) were called active. The inconclusive results got no clear call from the source; some entries with a clear call stand among them for comparison. Calls follow the shape of the dose curve; as a rule, active = well fitted inhibition curve with a large enough effect; inconclusive = small, poorly fitted or top-dose-only effect; inactive = no such curve, though single readings can be large or run the other way. Potencies of inconclusive entries are doubtful fits and often do not repeat.
# Molecular target: Thioredoxin reductase 1, cytoplasmic (Rattus norvegicus) (UniProt O89049)
# Assay: qHTS Assay for Inhibitors of Mammalian Selenoprotein Thioredoxin Reductase 1 (TrxR1): qHTS; also: nearly all actives have a fitted effect of over 65% in size
# Conditions: recombinant rTrxR1, NADPH fluorescence consumption, selenite substrate; series mostly up to 114 µM; activity change, negative = inhibition: at the top concentration
# Procedure, shortened: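 Rat TrxR1 (90 nM in the dispensed reagent) was pre-reduced with 400 uM NADPH for 5 min at room temperature, then incubated with compound for 15 min. After 400 uM selenite was added, NADPH fluorescence (Ex 340/Em 450 nm) was followed for 8 min.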
# % is scaled to controls: 0 for no effect and ±100 for the full control effect; potency is read from the fitted curve at half-maximal effect; tags tell the direction and shape of the fitted curve.
# UniProt O89049, sequence (O89049 whole entry, looked up): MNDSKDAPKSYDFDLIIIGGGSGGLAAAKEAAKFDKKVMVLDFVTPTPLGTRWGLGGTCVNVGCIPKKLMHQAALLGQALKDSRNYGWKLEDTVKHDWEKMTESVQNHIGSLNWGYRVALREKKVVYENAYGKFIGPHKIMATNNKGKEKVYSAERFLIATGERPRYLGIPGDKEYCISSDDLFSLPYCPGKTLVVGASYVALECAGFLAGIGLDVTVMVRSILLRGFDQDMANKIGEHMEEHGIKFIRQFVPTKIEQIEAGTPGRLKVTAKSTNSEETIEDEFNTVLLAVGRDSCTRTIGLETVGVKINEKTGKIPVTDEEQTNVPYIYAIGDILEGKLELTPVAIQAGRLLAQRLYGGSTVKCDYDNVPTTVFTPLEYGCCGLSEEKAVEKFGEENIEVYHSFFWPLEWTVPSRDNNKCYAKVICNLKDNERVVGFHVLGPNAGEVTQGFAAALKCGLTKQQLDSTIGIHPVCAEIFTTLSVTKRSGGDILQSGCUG
SMILES,"activity change, negative = inhibition",Potency
COc1cc(/C=N\NC(=O)CC#N)ccc1OC/C=C/c1ccccc1,inactive: 1.51%,–
CN1CCc2c(sc(N)c2C(N)=O)C1,–,"inconclusive: 50.1 µM [inhibitor, partial curve]"
N#CC(CO)(Cc1ccc(OC(F)F)cc1)c1nc2ccccc2[nH]1 (stereo not drawn),–,"inconclusive: 89.1 µM [inhibitor, single point]"
Cc1oc2c(c(C)cc3oc(=O)c(CC(=O)NCCc4ccc(Cl)cc4)c(C)c32)c1C,inactive: 27.3%,–
COc1ccc(C(=O)Cn2c(C)nc([N+](=O)[O-])c2Br)cc1,–,active: 17.8 µM
S=c1nc[nH]c2c1cnn2Cc1ccccc1,–,"inconclusive: 39.8 µM [inhibitor, partial curve, poor fit]"
Cc1cc(O)c(/C=N/Nc2ccccc2Cl)c(=O)o1,–,"inconclusive: 70.8 µM [inhibitor, single point]"
COC(=O)C1CC2=C(CCCC2=O)N(Cc2ccccc2)C1=O (stereo not drawn),–,"inconclusive: 70.8 µM [inhibitor, partial curve]"
COc1cc(OC)c2ccc(=O)oc2c1,–,"inconclusive: 17.8 µM [inhibitor, partial curve]"
O=C(NCc1ccc2c(c1)OCO2)c1ccc(-c2ccc(Cl)cc2)o1,–,"inconclusive: 28.2 µM [inhibitor, single point]"
COc1ccc(CCNC(=O)c2cc(-c3ccc(C)c(C)c3)nc3ccccc23)cc1OC,inactive: -3.14% [at 57.1 µM],–
COc1ccc(N=Nc2c(C)[nH]c3ccccc23)cc1,–,"inconclusive: 50.1 µM [inhibitor, partial curve, poor fit]"
CCOc1ccc(C(C)NC(=O)CN2C(=O)NC3(CCCCC3)C2=O)cc1OCC (stereo not drawn),inactive: -5.62%,–
COc1cc(/C=C2/C(=O)ON=C2c2ccccc2)ccc1O,–,active: 12.6 µM
CCOCCCN1C(=O)C(O)=C(C(C)=O)C1c1cccs1 (stereo not drawn),–,"inconclusive: 39.8 µM [inhibitor, partial curve]"
COCCN1Cc2cccc(C(=O)NCCc3ccccc3)c2C1=O,inactive: 4.64%,–
Cn1c(N=Nc2ccc(N3CCOCC3)cc2)[n+](C)c2ccccc21,–,"inconclusive: 25.1 µM [inhibitor, partial curve]"
CC(=O)Nc1ccc(NC(=O)COc2ccc(Br)cc2C)cc1,inactive: 9.52%,–
CN(Cc1ccccc1)C(=O)COC(=O)/C=C/c1ccc2c(c1)OCO2,–,"inconclusive: 17.8 µM [inhibitor, partial curve, poor fit]"
O=C(Nc1nc2ccccc2n1Cc1ccccc1)c1ccc(COc2ccccc2[N+](=O)[O-])o1,–,"inconclusive: 39.8 µM [inhibitor, single point]"
O=[N+]([O-])c1ccc(-c2c[nH]c(=S)[nH]2)cc1,–,"inconclusive: 22.4 µM [inhibitor, partial curve, poor fit]"
Cc1nc2nc(C)c(CCC(=O)NCc3cccc(Cl)c3)c(C)n2n1,inactive: 12.7%,–
COc1ccccc1N1CCN(/N=C/c2ccc([N+](=O)[O-])cc2)CC1,inactive: 13.6%,–

SMILES,"activity change, negative = inhibition",Potency
O=C(NC(=S)Nc1ccc(O)cc1)c1ccccc1Cl,–,"inconclusive: 22.4 µM [inhibitor, partial curve, poor fit]"
Cc1[nH]n(C(N)=S)c(=O)c1C(c1ccccc1)C(C#N)C#N (stereo not drawn),–,"inconclusive: 12.6 µM [inhibitor, partial curve, poor fit]"
COc1cc(/C=C2\CC/C(=C\c3cc(OC)c(OC)c(OC)c3)C2=O)cc(OC)c1OC,inactive: 23.3% [at 57.1 µM],–
COc1cc(C2=Nc3ccc(Br)cc3C(c3ccccc3)N2CC(=O)NN)cc(OC)c1OC (stereo not drawn),–,"inconclusive: 89.1 µM [inhibitor, partial curve, poor fit]"
Cc1sc2ncnc(Sc3nnnn3-c3ccccc3)c2c1C,–,"inconclusive: 15.8 µM [inhibitor, full curve, poor fit] and inconclusive: 15.8 µM [inhibitor, partial curve, poor fit]"
CN(C(=O)c1ccc(S(=O)(=O)c2cccc(Cl)c2)c([N+](=O)[O-])c1)C1CCCCC1,–,"inconclusive: 50.1 µM [inhibitor, partial curve]"
O=C(N/N=C/C=C/c1ccco1)c1cccc([N+](=O)[O-])c1,–,"inconclusive: 79.4 µM [inhibitor, single point]"
CN(C)S(=O)(=O)c1cccc(NC(=S)Nc2cccc3cnccc23)c1,–,active: 39.8 µM
O=C(O)c1ccc(Cn2cnc3c(=S)nc[nH]c32)cc1,–,"inconclusive: 22.4 µM [inhibitor, single point]"
COCCn1c(C)cc(/C=C(\C#N)C(=O)OCC(=O)Nc2ccc(S(N)(=O)=O)cc2)c1C,–,"inconclusive: 25.1 µM [inhibitor, partial curve, poor fit]"
COc1ccc(Br)cc1C1CC(=O)N2CN(Cc3ccccc3)CSC2=C1C#N (stereo not drawn),–,"inconclusive: 14.1 µM [inhibitor, partial curve]"
Cc1cc(=O)[nH]c(NN=C2CCCCC2C)n1 (stereo not drawn),inactive: 11.6% [at 57.1 µM],–
CCC(C(=O)N(C)Cc1ccccc1)n1nc(C)c2sc3ccccc3c2c1=O (stereo not drawn),inactive: 33.3%,–
COC(=O)C1=C(C)N(Cc2ccc(C)cc2)C(=O)/C1=C\c1cc(OC)c(OC)c(OC)c1,–,"inconclusive: 79.4 µM [inhibitor, single point]"
O=C(Nc1ccccc1F)c1cnn2c1NC(=C1CC1)C=C2C(F)F,inactive: 10.6%,–
CC1=C([N+](=O)[O-])C(c2cccc(Br)c2)C2=C(N1)c1ccccc1C2=O (stereo not drawn),–,"inconclusive: 89.1 µM [inhibitor, partial curve, poor fit]"
COc1ccccc1C(=O)NCCC(=O)NCC1COc2ccccc2O1 (stereo not drawn),–,"inconclusive: 17.8 µM [inhibitor, partial curve, poor fit]"
CCOC(=O)N1CCC(NC(=S)Nc2ccc3nc(N4CCN(CC)CC4)cc(C)c3c2)CC1,–,"inconclusive: 79.4 µM [inhibitor, single point]"
CCN1C(=O)c2ccccc2S(=O)c2ccc(C(=O)NCCN(CC(C)C)CC(C)C)cc21 (stereo not drawn),–,"inconclusive: 22.4 µM [inhibitor, single point]"
Oc1ccc(CN2CCN(c3ccccc3)CC2)c2cccnc12,–,"inconclusive: 11.2 µM [inhibitor, partial curve]"
Cc1ccc2c(NC(=S)NC(=O)c3ccccc3)cccc2n1,–,active: 79.4 µM
Cc1c(NC(=S)NCc2ccc(F)cc2)cccc1[N+](=O)[O-],–,"inconclusive: 11.2 µM [inhibitor, full curve]"
Cc1ccc(-n2c(=O)[nH]c3sc4c(c3c2=O)CCCC4)cc1,–,"inconclusive: 5.01 µM [inhibitor, full curve]"

SMILES,"activity change, negative = inhibition",Potency
O=C(/C=C/c1ccco1)NC1=NCCS1,–,"inconclusive: 70.8 µM [inhibitor, partial curve]"
O=S(=O)(Nc1ccc(O)c2ccccc12)c1cccs1,–,"inconclusive: 31.6 µM [inhibitor, single point]"
COc1ccccc1N1C(=O)[C@@H]2[C@H](C1=O)[C@H](C(=O)c1ccc(OC(C)=O)cc1)N1N=CC=C[C@@H]21,–,"inconclusive: 12.6 µM [inhibitor, partial curve, poor fit]"
Cc1cc(NC(=O)c2ccco2)cc(-c2nc3cc(Cl)ccc3o2)c1O,inactive: 32% [at 11.4 µM],–
COCCN1CSC(=S)N(Cc2ccco2)C1,–,"inconclusive: 17.8 µM [inhibitor, full curve, poor fit]"
CCCOc1ccc(-c2c(C(=O)N/N=C/c3ccsc3)nnn2-c2nonc2N)cc1,inactive: 17.6%,–
CCOC(=O)CSc1nc2c(sc(=S)n2Cc2ccco2)c(=O)n1-c1ccccc1,–,"inconclusive: 39.8 µM [inhibitor, single point]"
Cc1nnc(SCC(=O)Nc2nccs2)o1,inactive: 15.1%,–
CC1=C(C#N)c2nc(N)c(C#N)c(C)c2/C1=C\c1ccc(OCC(=O)O)c(Cl)c1,–,active: 50.1 µM
COc1ccc(CN(C)C(=O)CNC(=O)c2sc3ccccc3c2Cl)c(OC)c1OC,inactive: 1.2%,–
N#CC1=C(N)C(C#N)(C#N)C(c2ccncc2)C2CN(C(=O)OCc3ccccc3)CC=C12 (stereo not drawn),inactive: -34.6%,–
O=c1[nH]c2cc3c(cc2cc1C(c1nnnn1Cc1ccccc1)N1CCCCCC1)OCCO3 (stereo not drawn),–,"inconclusive: 79.4 µM [inhibitor, single point]"
C/C=C\C=C/C(=O)Nc1cccc(C2=NOC3(C2)C[C@@H](C(N)=O)N(C(=O)/C=C/C=C\C)C3)c1 (stereo partly drawn),–,active: 7.08 µM
Cc1cc(O)c(C(=O)/C=C/c2ccccc2Br)c(=O)o1,–,"inconclusive: 11.2 µM [inhibitor, full curve]"
Cc1cc(O)cc(O)c1C=NCc1ccco1,–,"inconclusive: 39.8 µM [inhibitor, partial curve]"
CC(C)(C)c1nc(SCC(=O)NCc2ccco2)c2ccccc2n1,–,"inconclusive: 70.8 µM [inhibitor, partial curve]"
Cn1c(/C(C#N)=C/c2ccncc2)nc2ccccc21,–,"inconclusive: 50.1 µM [inhibitor, partial curve]"
NC(=O)c1cc(C(=O)c2ccc(Cl)cc2Cl)c[nH]1,inactive: -16.1% [at 57.1 µM],–
O=C(c1cnn(-c2ccc(Cl)cc2)c1)c1ccccc1O,–,"inconclusive: 6.31 µM [inhibitor, single point]"
CC(=O)C1=C(O)C(=O)N(CCc2c[nH]c3ccccc23)C1c1cccc(O)c1 (stereo not drawn),–,"inconclusive: 44.7 µM [inhibitor, partial curve, poor fit]"
CC(C)Cn1c(C(C)C)nc([N+](=O)[O-])c1Sc1ccc(Cl)cn1,–,"inconclusive: 10 µM [inhibitor, partial curve, poor fit]"
CCCCOC(=O)C1[C@H]2C(=O)N(c3ccccc3CC)C[C@]23C=C[C@H]1O3 (stereo partly drawn),inactive: -6.38%,–
